Laboratory results published in paper PMC12006517.
No constants are given. Whether binding was seen depends on the method and setting. Binding seen in cells or lysates may run through a third protein. Some binding calls cover weakened binding; strength is not graded here.

Chains of the proteins cited; added tags and fusions are not shown. Lines headed by an entry give the natural chain unless they say otherwise; changes in a name come on top.
UniProt Q93008: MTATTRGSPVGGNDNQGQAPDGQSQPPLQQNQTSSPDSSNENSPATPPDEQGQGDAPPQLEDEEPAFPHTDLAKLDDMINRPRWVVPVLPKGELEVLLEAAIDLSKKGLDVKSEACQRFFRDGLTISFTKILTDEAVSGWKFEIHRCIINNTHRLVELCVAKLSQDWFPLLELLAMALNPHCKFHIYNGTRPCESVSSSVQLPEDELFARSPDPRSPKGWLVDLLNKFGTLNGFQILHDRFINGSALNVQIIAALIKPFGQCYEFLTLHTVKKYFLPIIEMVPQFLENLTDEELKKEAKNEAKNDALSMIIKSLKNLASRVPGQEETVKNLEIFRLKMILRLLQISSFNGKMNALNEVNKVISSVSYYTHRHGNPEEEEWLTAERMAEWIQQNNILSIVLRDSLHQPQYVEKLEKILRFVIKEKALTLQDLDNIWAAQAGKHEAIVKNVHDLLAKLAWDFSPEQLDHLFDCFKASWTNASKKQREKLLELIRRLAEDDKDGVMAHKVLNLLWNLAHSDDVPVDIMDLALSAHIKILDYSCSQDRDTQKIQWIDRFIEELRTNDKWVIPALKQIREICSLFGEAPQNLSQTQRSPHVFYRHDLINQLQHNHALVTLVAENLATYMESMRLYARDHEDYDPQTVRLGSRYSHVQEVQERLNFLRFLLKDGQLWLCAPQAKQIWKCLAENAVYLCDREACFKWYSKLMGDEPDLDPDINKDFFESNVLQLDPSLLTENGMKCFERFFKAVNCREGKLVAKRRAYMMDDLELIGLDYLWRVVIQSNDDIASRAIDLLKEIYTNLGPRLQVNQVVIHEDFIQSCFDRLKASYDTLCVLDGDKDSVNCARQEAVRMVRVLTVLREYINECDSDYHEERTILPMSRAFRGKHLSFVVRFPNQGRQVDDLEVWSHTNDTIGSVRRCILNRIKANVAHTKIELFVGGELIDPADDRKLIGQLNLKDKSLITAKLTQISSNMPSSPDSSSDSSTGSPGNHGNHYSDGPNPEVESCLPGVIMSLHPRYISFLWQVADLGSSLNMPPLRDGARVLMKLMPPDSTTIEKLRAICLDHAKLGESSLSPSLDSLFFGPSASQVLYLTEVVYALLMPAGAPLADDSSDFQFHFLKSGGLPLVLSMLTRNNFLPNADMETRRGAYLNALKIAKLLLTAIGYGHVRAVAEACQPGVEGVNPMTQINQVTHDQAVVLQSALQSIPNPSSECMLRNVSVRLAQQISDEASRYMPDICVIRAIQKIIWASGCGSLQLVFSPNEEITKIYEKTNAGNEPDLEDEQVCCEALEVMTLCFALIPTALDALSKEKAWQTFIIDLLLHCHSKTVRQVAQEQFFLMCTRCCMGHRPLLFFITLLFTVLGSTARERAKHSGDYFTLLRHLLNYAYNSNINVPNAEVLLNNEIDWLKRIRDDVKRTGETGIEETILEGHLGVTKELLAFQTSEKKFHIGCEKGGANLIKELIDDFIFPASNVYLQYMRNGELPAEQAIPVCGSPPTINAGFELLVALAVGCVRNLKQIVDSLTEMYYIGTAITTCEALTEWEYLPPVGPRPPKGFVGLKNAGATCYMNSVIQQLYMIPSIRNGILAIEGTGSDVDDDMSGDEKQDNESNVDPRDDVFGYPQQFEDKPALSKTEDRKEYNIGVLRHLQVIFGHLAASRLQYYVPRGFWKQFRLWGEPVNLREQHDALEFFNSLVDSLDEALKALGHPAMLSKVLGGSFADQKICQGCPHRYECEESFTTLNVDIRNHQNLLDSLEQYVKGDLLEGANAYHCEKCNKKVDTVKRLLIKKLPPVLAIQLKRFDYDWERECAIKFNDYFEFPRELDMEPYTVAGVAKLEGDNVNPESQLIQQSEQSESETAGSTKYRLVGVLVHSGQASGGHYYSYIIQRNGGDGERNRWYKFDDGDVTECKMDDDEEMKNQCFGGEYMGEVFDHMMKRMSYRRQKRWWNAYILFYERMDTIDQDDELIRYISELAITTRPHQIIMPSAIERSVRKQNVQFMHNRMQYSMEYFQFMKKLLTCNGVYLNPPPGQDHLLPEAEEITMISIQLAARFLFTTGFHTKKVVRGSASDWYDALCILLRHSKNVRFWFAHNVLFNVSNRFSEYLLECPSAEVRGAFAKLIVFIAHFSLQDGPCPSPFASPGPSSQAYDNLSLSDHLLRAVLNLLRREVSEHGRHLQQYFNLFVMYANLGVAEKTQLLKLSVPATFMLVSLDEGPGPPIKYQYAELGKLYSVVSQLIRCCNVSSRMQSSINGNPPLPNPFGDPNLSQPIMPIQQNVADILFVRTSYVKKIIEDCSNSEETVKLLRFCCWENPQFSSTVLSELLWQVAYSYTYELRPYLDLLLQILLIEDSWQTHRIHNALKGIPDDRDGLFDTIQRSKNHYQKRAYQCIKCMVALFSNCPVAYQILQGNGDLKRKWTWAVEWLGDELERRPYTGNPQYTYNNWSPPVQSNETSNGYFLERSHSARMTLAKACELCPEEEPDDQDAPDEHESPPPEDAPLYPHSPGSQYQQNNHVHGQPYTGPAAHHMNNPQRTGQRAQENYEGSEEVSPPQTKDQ
UniProt Q99814: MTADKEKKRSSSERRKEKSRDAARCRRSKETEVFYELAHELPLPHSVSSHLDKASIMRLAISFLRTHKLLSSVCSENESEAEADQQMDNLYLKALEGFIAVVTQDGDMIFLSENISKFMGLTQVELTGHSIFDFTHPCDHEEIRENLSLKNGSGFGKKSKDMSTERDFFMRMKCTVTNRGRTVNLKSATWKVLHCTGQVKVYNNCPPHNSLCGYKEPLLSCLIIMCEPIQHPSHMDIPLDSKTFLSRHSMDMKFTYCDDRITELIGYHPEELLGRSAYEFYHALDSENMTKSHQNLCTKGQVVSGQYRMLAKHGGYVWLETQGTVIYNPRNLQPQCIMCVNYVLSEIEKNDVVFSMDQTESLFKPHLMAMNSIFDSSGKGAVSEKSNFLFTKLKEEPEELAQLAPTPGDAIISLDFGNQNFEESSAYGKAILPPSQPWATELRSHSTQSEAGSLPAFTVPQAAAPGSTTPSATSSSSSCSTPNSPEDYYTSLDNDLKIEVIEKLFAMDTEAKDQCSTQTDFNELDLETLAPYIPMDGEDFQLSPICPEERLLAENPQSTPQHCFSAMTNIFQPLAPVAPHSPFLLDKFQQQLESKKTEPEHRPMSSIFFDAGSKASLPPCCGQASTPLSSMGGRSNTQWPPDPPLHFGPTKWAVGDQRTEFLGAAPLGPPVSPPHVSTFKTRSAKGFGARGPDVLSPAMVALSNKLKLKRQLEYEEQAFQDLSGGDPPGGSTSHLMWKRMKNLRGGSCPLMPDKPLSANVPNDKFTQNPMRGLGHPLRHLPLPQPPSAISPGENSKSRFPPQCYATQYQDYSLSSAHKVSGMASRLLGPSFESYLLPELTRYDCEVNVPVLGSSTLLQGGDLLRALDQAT
UniProt P97481: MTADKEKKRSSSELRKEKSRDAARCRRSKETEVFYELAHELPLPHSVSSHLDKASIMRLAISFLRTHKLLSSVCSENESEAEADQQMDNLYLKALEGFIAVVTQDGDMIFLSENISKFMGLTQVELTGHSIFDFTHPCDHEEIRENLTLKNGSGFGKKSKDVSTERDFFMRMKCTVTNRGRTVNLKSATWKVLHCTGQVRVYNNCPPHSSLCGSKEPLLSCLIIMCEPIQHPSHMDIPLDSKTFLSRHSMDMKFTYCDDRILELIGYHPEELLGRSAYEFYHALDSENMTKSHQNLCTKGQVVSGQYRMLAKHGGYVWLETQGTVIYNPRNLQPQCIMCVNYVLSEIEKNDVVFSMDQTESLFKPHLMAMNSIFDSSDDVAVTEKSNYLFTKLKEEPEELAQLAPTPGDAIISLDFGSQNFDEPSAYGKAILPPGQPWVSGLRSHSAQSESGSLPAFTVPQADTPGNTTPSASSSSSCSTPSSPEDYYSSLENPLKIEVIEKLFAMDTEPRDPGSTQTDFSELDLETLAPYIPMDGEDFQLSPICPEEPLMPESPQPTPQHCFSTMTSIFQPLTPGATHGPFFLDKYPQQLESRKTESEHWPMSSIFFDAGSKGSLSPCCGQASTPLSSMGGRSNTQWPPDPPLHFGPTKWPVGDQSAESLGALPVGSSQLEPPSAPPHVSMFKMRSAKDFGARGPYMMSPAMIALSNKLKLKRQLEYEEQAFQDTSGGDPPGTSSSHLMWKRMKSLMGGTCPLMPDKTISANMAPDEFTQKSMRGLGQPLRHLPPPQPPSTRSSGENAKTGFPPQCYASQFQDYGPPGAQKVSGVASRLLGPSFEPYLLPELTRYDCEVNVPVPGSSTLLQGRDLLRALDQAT

Legend:
[1] = target: Flag-tagged full length USP9X wild-type (UniProt Q93008); assay: co-IP; over-expressed Flag-USP9X (whole or truncated) and HA-HIF-2α (whole, truncated or 2dPA mutant); HEK293T named for Fig. 3B, C; lysis buffer 50 mM Tris-HCl pH 7.4, 150 mM NaCl, 5 mM EDTA, 0.5% NP-40; immunoblot
[2] = target: USP9X (endogenous, CAOV3) (human (endogenous in CAOV3)) (UniProt Q93008); assay: proximity ligation; Duolink PLA on fixed, permeabilised CAOV3 and ID8 cells, with or without TGF-β1 (5 ng/mL) for 24 h
[3] = target: USP9X (endogenous, CAOV3) (human (endogenous in CAOV3)) (UniProt Q93008); assay: co-IP; endogenous proteins in CAOV3 and ID8 lysates; antibody on protein A/G agarose; lysis buffer 50 mM Tris-HCl pH 7.4, 150 mM NaCl, 5 mM EDTA, 0.5% NP-40; also after TGF-β1 (5 ng/mL) and/or 1% O2 for 24 h
[4] = target: USP9X (endogenous, ID8) (mouse (endogenous in ID8)) (UniProt P70398); assay: proximity ligation; Duolink PLA on fixed, permeabilised CAOV3 and ID8 cells, with or without TGF-β1 (5 ng/mL) for 24 h
[5] = target: USP9X (endogenous, ID8) (mouse (endogenous in ID8)) (UniProt P70398); assay: co-IP; endogenous proteins in CAOV3 and ID8 lysates; antibody on protein A/G agarose; lysis buffer 50 mM Tris-HCl pH 7.4, 150 mM NaCl, 5 mM EDTA, 0.5% NP-40; also after TGF-β1 (5 ng/mL) and/or 1% O2 for 24 h

With “HA-tagged full-length HIF-2α (from UniProt Q99814 1-870)” as the substance, how does the binding [1] read?
Its binding is “binds”.

For “HA-tagged HIF-2α P405A/P531A (2dPA) mutant (from UniProt Q99814 1-870)”, which binding [1] is on record?
The binding was “no binding”.

For “HIF-2α (endogenous, CAOV3) (from UniProt Q99814 1-870)”, which binding [2] is on record?
The binding was “binds”.

And the binding [3]?
Its binding is “binds”.

Which results are given for “HIF-2α (endogenous, ID8) (from UniProt P97481 1-874)”?
binding [4]: binds; binding [5]: binds
